This is one part of the list. No stated cut-off is given here; in the data, active = 3.2 or more and inactive = the rest. The signal is at background level for most entries.
Assays:
Experiment in all cases: enrichment score (SH2-bound / input frequency) (ratio); bacterial display of known human phosphotyrosine sites (pTyr-Var adds point mutants) read by sequencing; higher = stronger binding; tyrosines were phosphorylated by kinases first
Conditions in all cases: peptide library: pTyr-Var
[1] = molecular target: SHP2 C-SH2 domain E139D
[2] = molecular target: SHP2 C-SH2 domain wild-type
[3] = molecular target: SHP2 N-SH2 domain L43F
[4] = molecular target: SHP2 N-SH2 domain T42A
[5] = molecular target: SHP2 N-SH2 domain T52S
[6] = molecular target: SHP2 N-SH2 domain wild-type
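Further: displayed peptides selected on beads carrying the immobilized SH2 domain, with library peptides lacking any tyrosine serving as negative controls.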

| Binder | enrichment score [1] | enrichment score [2] | enrichment score [3] | enrichment score [4] | enrichment score [5] | enrichment score [6] |
| --- | --- | --- | --- | --- | --- | --- |
| SFSGEYGSGGG [ZG16_Y30_G32S_YF] | inactive: 0.541 | inactive: 0.682 | inactive: 0.601 | inactive: 0.451 | inactive: 0.509 | inactive: 0.592 |
| ADEEFYEIIAA [FEStide_F_2014] | inactive: 2.08 | inactive: 1.67 | inactive: 1.66 | inactive: 1.56 | inactive: 1.57 | inactive: 1.69 |
| FSSLGYPPPEG [ZSWIM4_Y87_YF] | inactive: 0.743 | inactive: 0.785 | inactive: 0.93 | inactive: 0.758 | inactive: 0.661 | inactive: 0.836 |
| SDVWSYGVTMW [ZAP70_Y525] | inactive: 1.04 | inactive: 0.939 | inactive: 0.755 | inactive: 0.702 | inactive: 0.949 | inactive: 1.04 |
| FSQETYFRVSN [ABCD1_Y180_Q178E_YF] | inactive: 1.43 | inactive: 1.1 | inactive: 0.942 | inactive: 1.12 | inactive: 0.989 | inactive: 1.19 |
| GDEEDYFEIPG [EGFR_opt_F_2015] | inactive: 0.702 | inactive: 0.61 | inactive: 0.827 | inactive: 0.637 | inactive: 0.517 | inactive: 0.866 |
| VHKKGYNKLNQ [ZNF676_Y98_E96K] | inactive: 1.84 | inactive: 1.49 | inactive: 1.31 | inactive: 1.4 | inactive: 1.38 | inactive: 1.28 |
| NLSVPYDSSLK [ABCC8_Y1353_R1352P] | inactive: 0.549 | inactive: 0.553 | inactive: 0.541 | inactive: 0.551 | inactive: 0.529 | inactive: 0.617 |
| FETVKYINNER [ABCB7_Y345_F346I_YF] | inactive: 0.918 | inactive: 0.906 | inactive: 0.869 | inactive: 1.79 | inactive: 0.857 | inactive: 0.966 |
| LGRTVYADCLA [ABCA4_Y2063_L2060R] | inactive: 1.11 | inactive: 1.72 | inactive: 1.23 | inactive: 3.03 | inactive: 1.41 | inactive: 1.3 |
| RGVVMYTSKDR [ZG16B_Y136_M133V] | inactive: 0.654 | inactive: 0.639 | inactive: 0.695 | inactive: 0.56 | inactive: 0.53 | inactive: 0.613 |
| APEVIYATPGA [ABLtide_2014] | inactive: 0.833 | inactive: 0.936 | inactive: 0.83 | inactive: 0.703 | inactive: 0.828 | inactive: 0.966 |
| GDEEDYEEIPG [EGFR_opt_E_2015] | inactive: 0.9 | inactive: 0.574 | inactive: 0.425 | inactive: 0.736 | inactive: 0.471 | inactive: 0.54 |
| AHPIIYDIIEA [PYKtide_D_2014] | inactive: 1.69 | inactive: 1.38 | inactive: 1.39 | inactive: 1.69 | inactive: 1.47 | inactive: 1.48 |
| REGKIYEYNQV [ZNF665_Y162_H157R] | inactive: 0.648 | inactive: 0.362 | inactive: 0.689 | inactive: 0.507 | inactive: 0.463 | inactive: 0.4 |
| NLSVHYDSSLK [ABCC8_Y1353_R1352H] | inactive: 0.918 | inactive: 1.06 | inactive: 0.86 | inactive: 0.836 | inactive: 0.847 | inactive: 1 |
| RLIEGYTGPFK [ZNF862_Y181] | inactive: 0.899 | inactive: 1.06 | inactive: 0.823 | inactive: 0.909 | inactive: 0.915 | inactive: 0.913 |
| EITSHYRHLLR [ZBTB46_Y14] | inactive: 0.897 | inactive: 0.93 | inactive: 0.778 | inactive: 0.821 | inactive: 0.909 | inactive: 0.872 |
| RNAAEYLLSSG [ABL1_Y139] | inactive: 1.25 | inactive: 0.723 | inactive: 1.25 | inactive: 0.672 | inactive: 0.743 | inactive: 0.994 |

| Binder | enrichment score [1] | enrichment score [2] | enrichment score [3] | enrichment score [4] | enrichment score [5] | enrichment score [6] |
| --- | --- | --- | --- | --- | --- | --- |
| GGQDVYGDFGG [Probound] | inactive: 0.716 | inactive: 0.636 | inactive: 0.646 | inactive: 0.716 | inactive: 0.657 | inactive: 0.729 |
| VEKGSYSALLA [ABCC2_Y845] | inactive: 0.99 | inactive: 0.682 | inactive: 0.599 | inactive: 0.491 | inactive: 0.667 | inactive: 0.545 |
| SFSGEYGGGGG [ZG16_Y30_YF] | inactive: 0.54 | inactive: 0.512 | inactive: 0.497 | inactive: 0.44 | inactive: 0.43 | inactive: 0.575 |
| CDYKKYGKGLR [ZNF445_Y433_Y428C] | inactive: 0.928 | inactive: 1.08 | inactive: 0.928 | inactive: 1.06 | inactive: 1.04 | inactive: 1.13 |
| FSQQTYCRVSN [ABCD1_Y180_Y181C] | inactive: 0.995 | inactive: 0.886 | inactive: 0.792 | inactive: 0.801 | inactive: 0.856 | inactive: 0.776 |
| NKPTVCGVSPN [ABL1_Y226_Y226C] | inactive: 0.859 | inactive: 0.692 | inactive: 0.726 | inactive: 0.578 | inactive: 0.899 | inactive: 0.783 |
| APRKVYDTRDD [ZFPL1_Y215] | inactive: 0.489 | inactive: 0.406 | inactive: 0.463 | inactive: 0.415 | inactive: 0.373 | inactive: 0.575 |
| ARAFIYAIIPA [ACKtide_2014] | inactive: 1.5 | inactive: 1.86 | inactive: 1.5 | inactive: 1.34 | inactive: 1.55 | inactive: 1.77 |
| LLRLAYLADVF [ZBED5_Y476_I480V] | active: 4.46 | active: 3.33 | active: 3.83 | inactive: 3.18 | active: 3.33 | active: 4.19 |
| AEEEIYGIFGA [SRCtide_2014] | inactive: 0.971 | inactive: 1.66 | inactive: 1.23 | inactive: 1.08 | inactive: 1.4 | inactive: 1.82 |
| RLTEGYTGPFK [ZNF862_Y181_I178T] | inactive: 1.18 | inactive: 0.634 | inactive: 0.455 | inactive: 0.657 | inactive: 0.693 | inactive: 0.729 |
| HEGKIYEYNQV [ZNF665_Y162] | inactive: 0.911 | inactive: 0.736 | inactive: 0.709 | inactive: 0.817 | inactive: 0.729 | inactive: 0.906 |
| AQINLYQDVML [ZNF806_Y33] | inactive: 1.42 | inactive: 1.08 | inactive: 1.09 | inactive: 0.957 | inactive: 1.13 | inactive: 1.04 |
| EGELRYMHSRV [ABCD1_Y281_K276E] | inactive: 0.829 | inactive: 0.779 | inactive: 0.866 | inactive: 0.591 | inactive: 0.843 | inactive: 0.921 |
| YADPYYDYEIE [ZC3H18_Y372] | inactive: 0.88 | inactive: 0.609 | inactive: 0.898 | inactive: 0.723 | inactive: 0.758 | inactive: 0.859 |
| VLALWYYYLTH [ZDHHC23_Y127] | active: 3.2 | active: 3.61 | inactive: 2.93 | inactive: 2.33 | inactive: 2.55 | inactive: 3.03 |
| VLALWYYYLTN [ZDHHC23_Y127_H132N] | active: 3.98 | active: 5.41 | active: 3.3 | inactive: 2.23 | inactive: 2.84 | active: 3.5 |
| YSSLGYPPPEG [ZSWIM4_Y87] | inactive: 1.15 | inactive: 3.19 | inactive: 0.809 | inactive: 1.36 | inactive: 0.921 | inactive: 0.773 |

Reference: the supplement of paper PMC10369915
